Test results from the supplement of paper PMC4604168 (melanoma cell lines).
The list shows a part of the results. Repeats are few or missing, and single values can be far off.

Columns and labels:
Assay in all cases: cell count relative to DMSO control; melanoma cells; higher = more viable cells
Settings in all cases: library dose: standard library concentration; 72 h
G361 = tested on: G361
IPC-298 = tested on: IPC-298
IST-MEL1 = tested on: IST-MEL1
LB2518-MEL = tested on: LB2518-MEL
LOXIMVI = tested on: LOXIMVI
MEL-HO = tested on: MEL-HO
MZ2-MEL = tested on: MZ2-MEL
MeWo = tested on: MeWo
RPMI7951 = tested on: RPMI7951
RVH-421 = tested on: RVH-421
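Further: cells treated in 1,536-well plates, then fixed and DAPI-stained, with nuclei counted from automated high-throughput microscope images.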

SMILES	cell count (G361)	cell count (IPC-298)	cell count (IST-MEL1)	cell count (LB2518-MEL)	cell count (LOXIMVI)	cell count (MEL-HO)	cell count (MZ2-MEL)	cell count (MeWo)	cell count (RPMI7951)	cell count (RVH-421)
Cc1ccc(Nc2nccc(N(C)c3ccc4c(C)n(C)nc4c3)n2)cc1S(N)(=O)=O [Pazopanib] + COc1ccc(-c2ccc3c(N4CCOCC4)nc(N4C[C@@H](C)O[C@@H](C)C4)nc3n2)cc1CO [KU0063794] (first compound 2 µM, partner dose 0.1 µM)	69.2%	57.6%	91.8%	57.5%	70.3%	75.8%	74.8%	78%	65.2%	69.9%
O=C(/C=C/c1cccnc1)NCCCCC1CCN(C(=O)c2ccccc2)CC1 + CS(=O)(=O)c1ccc(C(=O)Nc2ccc(Cl)c(-c3ccccn3)c2)c(Cl)c1 [vismodegib] (first compound 0.05 µM, partner dose 5 µM)	3.48%	26.2%	70.1%	64.2%	99.7%	48.4%	42.3%	89.6%	95.8%	40.5%
O=C(/C=C/c1cccnc1)NCCCCC1CCN(C(=O)c2ccccc2)CC1 + C=CCn1c(=O)c2cnc(Nc3ccc(N4CCN(C)CC4)cc3)nc2n1-c1cccc(C(C)(C)O)n1 [MK1775] (first compound 0.05 µM, partner dose 0.1 µM)	3.42%	26.4%	66.2%	46.8%	59.6%	41%	32.7%	91.7%	75.2%	37.9%
CC1(C)CCC(c2ccc(Cl)cc2)=C(CN2CCN(c3ccc(C(=O)NS(=O)(=O)c4ccc(N[C@H](CCN5CCOCC5)CSc5ccccc5)c(S(=O)(=O)C(F)(F)F)c4)cc3)CC2)C1 + CCc1ccc(CCOc2ccc(CC3SC(=O)NC3=O)cc2)nc1 [pioglitazone] (first compound 2 µM, partner dose 10 µM)	64.9%	93.8%	83.1%	85.7%	55.3%	62.4%	118%	79.5%	57.1%	67.2%
O=C(/C=C/c1cccnc1)NCCCCC1CCN(C(=O)c2ccccc2)CC1 + C[C@]1(O)C[C@@H](c2nc(-c3ccc4ccc(-c5ccccc5)nc4c3)c3c(N)nccn32)C1 [OSI906] (first compound 0.05 µM, partner dose 2 µM)	8.4%	30.3%	75.5%	58.3%	107%	50.7%	36.3%	71.3%	80%	60.4%
Cc1ccc(Nc2nccc(N(C)c3ccc4c(C)n(C)nc4c3)n2)cc1S(N)(=O)=O [Pazopanib] + C[C@@H]1CCN(C(=O)CC#N)C[C@@H]1N(C)c1ncnc2[nH]ccc12 [CP690550] (first compound 2 µM, partner dose 5 µM)	97.4%	77%	108%	90.3%	81.5%	87%	84.4%	96.9%	75.7%	112%
O=C(/C=C/c1cccnc1)NCCCCC1CCN(C(=O)c2ccccc2)CC1 + COC(=O)c1sccc1S(=O)(=O)Nc1ccc(Nc2ccccc2)cc1OC [GSK0660] (first compound 0.05 µM, partner dose 5 µM)	2.56%	30.1%	65.3%	44%	89.1%	47.1%	42.9%	106%	91.5%	33.4%
Cc1ccc(Nc2nccc(N(C)c3ccc4c(C)n(C)nc4c3)n2)cc1S(N)(=O)=O [Pazopanib] + O=C(O)c1ccc2c(c1)nc(Nc1cccc(Cl)c1)c1ccncc12 [CX4945] (first compound 2 µM, partner dose 2 µM)	55.8%	50.3%	78.5%	95.7%	44.3%	69.2%	48.5%	70%	47%	94%
O=C(/C=C/c1cccnc1)NCCCCC1CCN(C(=O)c2ccccc2)CC1 + OCCn1cc(-c2cnc3nnn(Cc4ccc5ncccc5c4)c3n2)cn1 [PF04217903] (first compound 0.05 µM, partner dose 5 µM)	4.58%	31.1%	65.9%	69.1%	49.6%	49.6%	38.8%	98.7%	107%	31.5%
CC1(C)CCC(c2ccc(Cl)cc2)=C(CN2CCN(c3ccc(C(=O)NS(=O)(=O)c4ccc(N[C@H](CCN5CCOCC5)CSc5ccccc5)c(S(=O)(=O)C(F)(F)F)c4)cc3)CC2)C1 + Cc1ccc(NC(=O)c2cccc(N(C)C)c2)cc1NC(=O)c1ccc(O)cc1 [ZM336372] (first compound 2 µM, partner dose 10 µM)	66.6%	107%	67.1%	66.8%	76.2%	61.7%	87.1%	76.1%	51.6%	45%
CC1(C)CCC(c2ccc(Cl)cc2)=C(CN2CCN(c3ccc(C(=O)NS(=O)(=O)c4ccc(N[C@H](CCN5CCOCC5)CSc5ccccc5)c(S(=O)(=O)C(F)(F)F)c4)cc3)CC2)C1 + CNC(=O)c1cc(Oc2ccc(NC(=O)Nc3ccc(Cl)c(C(F)(F)F)c3)cc2)ccn1 [sorafenib] (first compound 2 µM, partner dose 2 µM)	48.4%	89.6%	81.3%	73.8%	52.6%	70.3%	91.1%	63.1%	31.7%	38.1%
Cc1ccc(Nc2nccc(N(C)c3ccc4c(C)n(C)nc4c3)n2)cc1S(N)(=O)=O [Pazopanib] + CC(=O)c1c(C)c2cnc(Nc3ccc(N4CCNCC4)cn3)nc2n(C2CCCC2)c1=O [palbociclib] (first compound 2 µM, partner dose 0.2 µM)	60.5%	48.1%	79.3%	56.6%	81%	67.9%	46.8%	58%	49.7%	59.4%
CC1(C)CCC(c2ccc(Cl)cc2)=C(CN2CCN(c3ccc(C(=O)NS(=O)(=O)c4ccc(N[C@H](CCN5CCOCC5)CSc5ccccc5)c(S(=O)(=O)C(F)(F)F)c4)cc3)CC2)C1 + NC(=O)Nc1cc(-c2cccc(F)c2)sc1C(=O)N[C@H]1CCCNC1 [AZD7762] (first compound 2 µM, partner dose 0.1 µM)	76.5%	97.1%	60%	56.9%	35.8%	62.8%	109%	75.6%	16.6%	44.2%
CC1(C)CCC(c2ccc(Cl)cc2)=C(CN2CCN(c3ccc(C(=O)NS(=O)(=O)c4ccc(N[C@H](CCN5CCOCC5)CSc5ccccc5)c(S(=O)(=O)C(F)(F)F)c4)cc3)CC2)C1 + CCN(CC)CCCCNc1ncc2cc(-c3cc(OC)cc(OC)c3)c(NC(=O)NC(C)(C)C)nc2n1 [PD173074] (first compound 2 µM, partner dose 0.5 µM)	76%	84%	77.9%	77.9%	35.4%	63.1%	96.6%	73.6%	49.5%	75.6%
Cc1ccc(Nc2nccc(N(C)c3ccc4c(C)n(C)nc4c3)n2)cc1S(N)(=O)=O [Pazopanib] + O=C1NC(=O)/C(=C/c2ccc(-c3ccc(F)cc3O)o2)S1 [AS252424] (first compound 2 µM, partner dose 5 µM)	80.2%	73.7%	94.5%	82.3%	77.5%	76.9%	72.5%	81.5%	74.7%	66.7%
O=C(/C=C/c1cccnc1)NCCCCC1CCN(C(=O)c2ccccc2)CC1 + NC1(c2ccc(-c3nc4ccn5c(=O)[nH]nc5c4cc3-c3ccccc3)cc2)CCC1 [MK2206] (first compound 0.05 µM, partner dose 2 µM)	4.91%	31.5%	71.5%	64.1%	70.9%	36.4%	29.2%	107%	105%	44.3%
Cc1ccc(Nc2nccc(N(C)c3ccc4c(C)n(C)nc4c3)n2)cc1S(N)(=O)=O [Pazopanib] + COc1cc2ncnc(Nc3ccc(Oc4ccccc4)cc3)c2cc1OC [SrcI1] (first compound 2 µM, partner dose 10 µM)	21%	65.7%	81%	106%	49.7%	76.1%	80.7%	69.5%	21.9%	112%
Cc1ccc(Nc2nccc(N(C)c3ccc4c(C)n(C)nc4c3)n2)cc1S(N)(=O)=O [Pazopanib] + CC(C)(C)c1cnc(CSc2cnc(NC(=O)C3CCNCC3)s2)o1 [SNS-032] (first compound 2 µM, partner dose 0.05 µM)	89.3%	94.1%	111%	55.2%	65%	97.2%	82.3%	86.3%	32.7%	95%
Cc1ccc(Nc2nccc(N(C)c3ccc4c(C)n(C)nc4c3)n2)cc1S(N)(=O)=O [Pazopanib] + Cc1cc(Nc2cc(N3CCN(C)CC3)nc(/C=C/c3ccccc3)n2)n[nH]1 [ENMD2076] (first compound 2 µM, partner dose 0.2 µM)	74%	63.7%	88.6%	68.9%	51.8%	77.6%	62.3%	72.4%	60.3%	74.9%
Cc1ccc(Nc2nccc(N(C)c3ccc4c(C)n(C)nc4c3)n2)cc1S(N)(=O)=O [Pazopanib] + Oc1cc(-c2nc(-c3ccccc3)[nH]c2-c2ccncc2)ccc1Cl [L779450] (first compound 2 µM, partner dose 1 µM)	54.2%	69.1%	73.3%	75.2%	68.6%	74.3%	83.5%	74.9%	66%	67.3%
Cc1ccc(Nc2nccc(N(C)c3ccc4c(C)n(C)nc4c3)n2)cc1S(N)(=O)=O [Pazopanib] + N#Cc1c(O)c2c(-c3ccc(-c4ccccc4O)cc3)csc2[nH]c1=O [A769662] (first compound 2 µM, partner dose 10 µM)	85.8%	63.6%	84.7%	85%	96.1%	80.6%	66.2%	99.6%	108%	117%
